± gives the standard deviation of the averaged measurements. Some of the results follow.
The sequences below were run on PfAP2-G AP2 domain (GST-tagged) (assay: gcPBM binding intensity (ln(normalized median fluorescence intensity)); higher = stronger DNA binding).
How it was run: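 Binding intensity is defined as the maximum Masliner-normalised natural-log median intensity across replicate spots for either probe orientation. It was measured on an Agilent 4 × 180k array of primer-extended double-stranded 36-bp intergenic genomic probes and negative controls, to which GST-tagged P. falciparum DNA-binding domains made in E. coli were applied for 1 h in 1× PBS with 1% milk, 0.2 mg/ml BSA, 0.5% salmon testes DNA and 0.03% Triton X-100. Detection was by Alexa488 anti-GST antibody and scanning at 488 nm.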

| Sequence | gcPBM binding intensity (ln) |
| --- | --- |
| AATTTGTAAAATAAGGTGCGTATAAAAAATTATATT [GTGCAC_site9676] | 10.29 ± 0.057 |
| ATAAACATCGGTAGTACACACATTCATGTACTTGAT [CACACA_site3037] | 11.8 ± 1 |
| ATTTAATAAAAAAAAAAAATATTGTAGAATATGATG [GTGCAC_negctrl_site195] | 9.735 ± 0.021 |
| ATTCGATGTTTTAAATGTACACAAATTGAAGGAATA [XGTACX_site409] | 11.5 ± 0.86 |
| ATGTTTTCTCTTTCGGTGCATTGTTTTCTATACTTT [GTGCAC_site9483] | 10.1 ± 0.17 |
| TATATATTTTTTTCAAGTACACATTACAGTTACATA [XGTACX_site2713] | 11.4 ± 1 |
| TTCTTCACATACACTTCAAAATTTGATAAAACATTA [CACACA_negctrl_site472] | 10.2 ± 0.31 |
| TAATAAATAAGATTCACACATATTTAAATGTTATGC [CACACA_site5275] | 9.52 ± 0.23 |
| TATCTATAATATTATACACACATATATGCATAATAT [CACACA_site6175] | 10.04 ± 0.092 |
| TTATTTGAATAATGTTTGCACTTAGAGTATTTTATA | 9.99 ± 0.23 |
| ATATATCATAAATAAATGAAAATATTTTCTATGTGT [CACACA_negctrl_site689] | 9.88 ± 0.15 |
| TTTTCTTACATGAGTGTACACACTTTTTTTCAGAAA [CACACA_site70] | 11.6 ± 0.91 |
| TTTATATAATTTTAATGTACATATATATATATAAAT [XGTACX_site4381] | 11.2 ± 0.74 |
| ATGAATTGACCATATTGTACATATTTAGGACTTACC [XGTACX_site8072] | 11.3 ± 0.63 |
| AAATATATGAAATATACACACTTCTTTGGTATTATT [CACACA_site4414] | 9.8 ± 0.27 |
| GTATATAATTTTTTTTTTTTTTTCATTCTTTTCCTT [CACACA_negctrl_site1780] | 9.53 ± 0.042 |
| ATTAAAAATATTAGTTGTACTTTATATTTTCATATA [XGTACX_site3614] | 11.3 ± 1.1 |
| ATATATATATAGTGTTGTACATTTAAAAATAATATA [XGTACX_site2627] | 11.2 ± 0.78 |
| TAGAAGTACATATATGCATGTTAATTTTAAAGGAGG [TGCATGCA_site538] | 11.3 ± 0.95 |
| AAATTCCATGAAAAAAGTACTAATTAATACAATATA [XGTACX_site2877] | 11.2 ± 0.67 |
| TTTAAGAATTAACGGGGTACAATTCTTAAATATATA [XGTACX_site669] | 11.4 ± 0.98 |
| AATCAAAATAATTTAACACACAATTTTAATACTGTT [CACACA_site2375] | 9.77 ± 0.16 |
| ATGTGATAGAAGTACACACACATATGTATTTATAAT [CACACA_site5075] | 11.7 ± 1.1 |

| Sequence | gcPBM binding intensity (ln) |
| --- | --- |
| TAATTATAATAAATATTCATATGTTCAAATATATAT [CACACA_negctrl_site151] | 9.715 ± 0.007 |
| TGTTTTATTTTTTTTGTGCACATACCTTTAGCATCA [GTGCAC_site9812] | 10.5 ± 0.14 |
| AAATAAATATAAATAAATAAATAAATAAATATATAT [CACACA_negctrl_site827] | 9.68 ± 0.23 |
| GCTCTTTTGTTATGGTGTACCCTCCATGTAACATAA [XGTACX_site91] | 11.4 ± 1 |
| TTAATAATTCTTAAAAGTACATAACTTTTTTTTTTT [XGTACX_site751] | 11.1 ± 0.68 |
| TCTTACGGATTCATTGTGCACATATATATATATATA [GTGCAC_site9896] | 10.7 ± 0.36 |
| TTTGTTGACAGACACACACACATACATATATATATA [CACACA_site2288] | 10.2 ± 0.22 |
| TATAATAATATAATGGTGCATGTATATAACCATATA | 10.3 ± 0.16 |
| TATATATAATTCATACATTTTAAATATATTTATTTA [CACACA_negctrl_site840] | 9.77 ± 0.042 |
| TTTTAAAAACGGCATGCATGTAATACATGGAAGGAA [TGCATGCA_site480] | 10.17 ± 0.085 |
| TTTAAAAAAATTCATGCACACGAAATAAAAAGCACC [CACACA_site8214] | 10.5 ± 0.35 |
| TCTTTTATGCACATTGAGTAAACAACATATTTTTAA [TGCATGCA_negctrl_site561] | 10.1 ± 0.21 |
| ATTTTTATAGAAATATGTACACAATATGTATATATT [XGTACX_site7993] | 11.3 ± 0.9 |
| TTAATATAGATATAACCACACACATACATCTAATTC [CACACA_site8519] | 10.09 ± 0.078 |
| TTTTTTATTAAAAGTAGTACACATGAAAAAAAAAAA [XGTACX_site5524] | 11.8 ± 1 |
| TGTATTTTTAACATATGTACGAATAGCACGTGTTAT [XGTACX_site3640] | 10.9 ± 0.58 |
| TAAAAATGGGAGGGGTGTACTACACAATAAAATTAT [XGTACX_site5641] | 11.6 ± 0.95 |
| ATTTTTTTATACAATTTTATATATTAAATATTATAA [GTGCAC_negctrl_site86] | 10.1 ± 0.46 |
| TATTTTATATGATAGGTGCATTTTTTTTTTTTTTTT [GTGCAC_site9757] | 10.4 ± 0.48 |
| CTTGACCCCCTTTGTTGTACTGACATTTGTGAGCTT [XGTACX_site591] | 11.3 ± 0.86 |
| ATTTTTTCAAAATGGAAAACTTATCAGTGAAAAAAA [CACACA_negctrl_site1087] | 10.1 ± 0.085 |
| ATATACATTCAAGGCTGTACACTATATTTTTTTTTT [XGTACX_site6514] | 11.1 ± 0.63 |
| ATATGTATTGGAGTGTGTACATATATATATATTTAT [XGTACX_site5633] | 11.4 ± 0.89 |

| Sequence | gcPBM binding intensity (ln) |
| --- | --- |
| TTAATAATGTTTTATTGTACTTTTTTGTGGGTTTAT [XGTACX_site5670] | 11.3 ± 1 |
| GTGCTACATCATATGTGTACATATACCAAACTGTAT [XGTACX_site8233] | 11.3 ± 0.7 |
| TTTGTGTAAAGAATCAGTACATATAATATATATATA [XGTACX_site1972] | 10.9 ± 0.74 |
| TATAATATATTTTGATGTACAAATATATTATATATA [XGTACX_site8633] | 10.8 ± 0.7 |
| ATAATATATTTTTGAACACACAATATATATATATAT [CACACA_site4124] | 9.97 ± 0.16 |
| ATATAAATATGACACACACACAAAAAAAATAAAGAC [CACACA_site6208] | 10.3 ± 0.2 |
| TTGATAAAACGTTATGCACACGTACGTGGGTATTTA [CACACA_site8445] | 11.3 ± 0.61 |
| TATAAAATTATTAAACAAGAAAATTTTAGGTAATAC [TGCATGCA_negctrl_site568] | 9.895 ± 0.064 |
| TAAAGTATTACAACCACACACACACCCATATATTAT [CACACA_site4159] | 10.4 ± 0.37 |
| AGTATACACGAACACACACACACATATATAAATATA [CACACA_site6913] | 10.1 ± 0.15 |
| TAAGTGTATGTATATAAACACACATACATATATATA [CACACA_site8397] | 9.905 ± 0.007 |
| TAATTTAAAAATTCCTGTACTCAGTTTTTTCTATTT [XGTACX_site4961] | 11.3 ± 0.97 |
| AGTAGATATTATTATAGTACTTTTTATTTTATATTT [XGTACX_site1551] | 11.1 ± 0.59 |
| GGAATTCATATTAATTGTACATTTAAAGATAGATGA [XGTACX_site3279] | 10.8 ± 0.46 |
| GAAGACAATTATATGTGTACATATATATACATATAT [XGTACX_site4630] | 11.3 ± 0.76 |
| AAAATTTATGGAAGGTGTACTGTTAATTATGTATAT [XGTACX_site6446] | 11.3 ± 0.79 |
| ATATTAAAGATATATACACACATATTTATAAATATA [CACACA_site7127] | 9.825 ± 0.078 |
| TAATATGTGGACTTTACACACTTGTTTTAAAATTCT [CACACA_site4605] | 10.8 ± 0.47 |
| ATATTTTACATATTTGCACACATATATTTATATACA [CACACA_site855] | 10.12 ± 0.071 |
| ATATATATATATATATGTACTTATTTATTTATTTAT [XGTACX_site4645] | 11.2 ± 0.95 |
| TACCTACCTTTACGGAGTACACAATAATAGTTATAA [XGTACX_site6593] | 11.6 ± 0.95 |
| TTTATTTATCTTTACGCACACACTTGCATGTACAAA [CACACA_site1118] | 11.1 ± 0.81 |
| ATATAAAAATAATAGAGTACAAAAAAAAAATGTATA [XGTACX_site7054] | 11.3 ± 0.66 |

| Sequence | gcPBM binding intensity (ln) |
| --- | --- |
| GATGATACGATTATCACACATTTATACTTTCTACAT [CACACA_site5669] | 9.945 ± 0.007 |
| TGTATACATTATTAAGTGCAAGTAGGGAAAAAAAAA | 10.2 ± 0.2 |
| TATATATATATATGTGCACACATAATAAAAAAAAAA [CACACA_site3830] | 10.7 ± 0.79 |
| TAAACATATACACGTACATGCAACGGATTTTTTTTT [TGCATGCA_site70] | 11.5 ± 0.99 |
| CAAGAAAAGAAACACACACACATATATATATATATA [CACACA_site3881] | 9.88 ± 0.23 |
| ATATAACTTTTAAAAGCATGCAAATATTTACTCAAT [TGCATGCA_site396] | 9.98 ± 0.014 |
| ATTACAATTTTAATAGTGCATTTTTATATATTTCTA [GTGCAC_site9918] | 9.64 ± 0.28 |
| ATATGATTAATTAAGTGTACGTATTTATAATTATAA [XGTACX_site5783] | 11.7 ± 1 |
| GTCTCGATAATGAAAAGTACAAAATAAAAATAATAA [XGTACX_site6471] | 11.2 ± 0.8 |
| TATAAGTATTAATACACACACAAAATAATAAAAAAA [CACACA_site3481] | 10.12 ± 0.071 |
| AAAAATAAAGGATATACACACTAATTCTATAAATAT [CACACA_site7344] | 9.95 ± 0.085 |
| TTGTATGAATTTATTTTTATTGATAATTAATATGTA [TGCATGCA_negctrl_site143] | 9.58 ± 0.099 |
| GAAATGTCATATAATAGTACACACATGAAAATATAA [XGTACX_site6838] | 11.4 ± 0.91 |
| TATGATTAATTACCACAATTGACAAAAAAAAAAAAA [CACACA_negctrl_site336] | 9.9 ± 0.48 |
| TAAAGAATAATACATTCACACAATATTATAAAAATA [CACACA_site5986] | 9.83 |
| AATAAACATAGATGTACACACATATACAGATATATA [CACACA_site5570] | 11.5 ± 1 |
| ATACAAAAGGGGAATACACACACATATATATATATA [CACACA_site8694] | 10.3 ± 0.28 |
| TCTCATATATTGAATTGTACATATGTTAAAATATAG [XGTACX_site6764] | 10.8 ± 0.58 |
| TATTAATTTTTATACGCATGTGTATAGTAATATATA [TGCATGCA_site1010] | 10.2 ± 0.22 |
| TTGTTCTATATATATGCATGCACGTATGTTAAATTA [TGCATGCA_site659] | 10.3 ± 0.33 |
